Laboratory results as given in paper PMC12136788.
The list shows a part of the results.

T1: UNK ZnF1-6 (called full-length) (human, UniProt Q9C0B0 30-357)
T1 sequence: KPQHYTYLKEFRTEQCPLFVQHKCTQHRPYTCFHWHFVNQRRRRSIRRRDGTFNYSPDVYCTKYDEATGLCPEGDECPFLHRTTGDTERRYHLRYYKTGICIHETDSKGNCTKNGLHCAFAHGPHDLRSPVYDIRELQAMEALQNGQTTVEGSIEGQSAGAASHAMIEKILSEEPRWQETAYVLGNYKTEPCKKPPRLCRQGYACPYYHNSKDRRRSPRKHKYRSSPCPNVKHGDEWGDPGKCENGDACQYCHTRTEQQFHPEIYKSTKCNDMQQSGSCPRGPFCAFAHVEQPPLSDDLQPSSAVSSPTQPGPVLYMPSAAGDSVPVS

B1: chr2:70656783:70663424:-|three_prime_utr|ENSG00000075340|control|control|control (ssRNA)
RNA: GGGAGUUCUACAGUCCGACGAUCUCUCUCCUCCCCUUCCCUUCUCCCAUCUCUGUCCCUGCAAGCACAGGGCUAAGGAGGGAUAGAGUAGGACCCUGGACCACAUUCGGAAGGGGAACUUAGAGAUCACCCGACCAACCCUUCCAACAGAGGAUUGAGCAUCA
B2: chr13:32775312:32775413:+|3pUTR|ENSG00000083642|unk|total|mutant (ssRNA)
RNA: GGGAGUUCUACAGUCCGACGAUCGAAACUUGUAAAUAUCUUUUUUCUUUUUUUUAAUGUUUCUGAUUUCUGAAGUGCUUGUACCGCUUUUAUCUGCGGCUUUAAACUGACAGUACCCGACUGUUUAUUGGAUCUAUUGAUUUGCAACAGAGGAUUGAGCAUCA
B3: ENSG00000107863:be:win_6101|3pUTR|ENSG00000107863|bound_else_gene|NA|bound_elsewhere_windowed (ssRNA)
RNA: GGGAGUUCUACAGUCCGACGAUCGCAAGGUAUUUGUUGCAACUUACUACAUAGCAUAUACCCAAAAUCACUGAAGAAAAUCGCUGGCAUCAGUGUGCAGCAAAUUUGUUCUUUUGGUUUCAUCACUAACAAAAGUGCCUCAUCCAACAGAGGAUUGAGCAUCA
B4: chr1:66363429:66363538:+|CDS|ENSG00000184588|unk|FALSE|bound_elsewhere (ssRNA)
RNA: GGGAGUUCUACAGUCCGACGAUCAGACCUCCUAAAGACAUUCAGAAUCUCAUCUGACACAUUUAUAACCUACAUGAUGACUUUAGAAGACCAUUACCAUUCUGACGUGGCAUAUCACAACAGCCUGCACGCUGCUGAUGUAGCCAACAGAGGAUUGAGCAUCA
B5: chr12:101746137:101746238:-|3pUTR|ENSG00000111670|msi1|total|mutant (ssRNA)
RNA: GGGAGUUCUACAGUCCGACGAUCGGUCCGUAAAUUAUUGCAGGCCACCUGUGUCUUUGUCAUACAUUCUUCUUGCUGUUGUUCCGUUUGUUUUUUUUCAAACAACCCUCUAAAAAUGUAAAAACCAUGUUCCGCUUGCAGCUGCAACAGAGGAUUGAGCAUCA
B6: chr9:88475159:88475277:+|CDS|ENSG00000106723|unk|FALSE|bound_elsewhere (ssRNA)
RNA: GGGAGUUCUACAGUCCGACGAUCACAAGUGGAAUAUGCCAAAGAAGAUGGCUCGAAAAGGACUGGCAUGGUCAUUCAUCAAGUAGAAGCCAAGCCCUCCGUCUAUUUCAUCAAGUUUGAUGAUGAUUUCCAUAUUUAUGUCUACAACAGAGGAUUGAGCAUCA
B7: chr4:175632990:175633131:-|3pUTR|ENSG00000150625|msi1|FALSE|unique (ssRNA)
RNA: GGGAGUUCUACAGUCCGACGAUCGUUGACACUUUUGGCUUUUAUUUCUGGUAUUAGAGUUUGUAUUUUCACAGAGUGCUUUGUAGCAGGCAUUACAAUUAAUCUGUUUUGUACAUAAAUGUGCCAACAGCUUGAUGGUGGCGUCAACAGAGGAUUGAGCAUCA
B8: chr10:5393100:5393516:-|three_prime_utr|ENSG00000178462|control|control|control (ssRNA)
RNA: GGGAGUUCUACAGUCCGACGAUCUGGGUGCAAAUGAAUGUCAAGUUAAAAUGGCAUGUUUUCUUUUCAAGCCGUUAUAUGCCUAGUGGGUAGUUCCCCUGAUGAGCAGAAAAAUGAACUCAAAUCAGGCAAGACUCUAGGUUCCAACAGAGGAUUGAGCAUCA
B9: chr7:135928980:135929074:-|3pUTR|ENSG00000105887|msi1_unk|total|mutant (ssRNA)
RNA: GGGAGUUCUACAGUCCGACGAUCUAAAAACCGAAUCACCGCCAUAAGCCUGUCCGUAUCAUAUGAAGAGAGAACAGUUAUCUCCGUACCUAUGGAUUUUCUUUAUUUGCUGUUUGAAUGGAUUGACCUUGGUUAUGUGUUGAGCAACAGAGGAUUGAGCAUCA
B10: ENSG00000197746:stop:overlap|stop_codon|ENSG00000197746|stop_codon|NA|stop_codon (ssRNA)
RNA: GGGAGUUCUACAGUCCGACGAUCACACAGAGACAGCAGCCCAGUGCAAUGCUGUCGAGCAUUGCAAACGCCAUGUGUGGAACUAGGAGGAGGAAUAUUCCAUCUUGGCAGAAACCACAGCAUUGGUUUUUUUCUACUUGUGUGCAACAGAGGAUUGAGCAUCA
B11: chr10:121967677:121967791:-|CDS|ENSG00000107672|unk|FALSE|bound_elsewhere (ssRNA)
RNA: GGGAGUUCUACAGUCCGACGAUCAAAUCCGCUAGAAGCUGAAGAACUCAUCCGUGAUGAAGAUAGUCCUGAUUUUGAAUUCAUAGUCUAUGACUCCUGGAAGAUAACAGGCAGAACAGCAGAAAACACCUUUAAUAAAACCCACAACAGAGGAUUGAGCAUCA
B12: chr9:104598459:104599413:-|CDS|ENSG00000277556|control|control|control (ssRNA)
RNA: GGGAGUUCUACAGUCCGACGAUCCUUAUAUUCAUAUUCUACAGGGUGAUGACUCCCAUGAUGAAUCCUUUAAUCUACAGUCUUAGAAACAAGGAUGUGAAGGAGGCAGUAAAACACCUACUGAGAAGAAAAAAUUUUAACAAGCAACAGAGGAUUGAGCAUCA
B13: chr16:46956602:46956663:-|3pUTR|ENSG00000069345|msi1_unk|total|mutant (ssRNA)
RNA: GGGAGUUCUACAGUCCGACGAUCGUUUGUACAAUUUGUCCUGAAGCUUUGUGUUUGGCUGCACCUGCAUAAGCUGCUACAAACCGAAUAAAGAAUUUCACCGCCUGUAUCUAUCAUUCCGAUGCAUGGAAAAAAAUGGGCUUUCAACAGAGGAUUGAGCAUCA
B14: chr12:100626600:100626701:+|3pUTR|ENSG00000139354|unk|total|mutant (ssRNA)
RNA: GGGAGUUCUACAGUCCGACGAUCAAUUUUAUCAUCAAGUAUUCCCUUAUAAAACCAAGUAACACUUCUUUAUCAGUAACUUUCCGAACUUAAAAGAAAGCAAAAAGUAAAUGGAAUUGCCGGCAAUUUAUGAAUCCCCGCCGACAACAGAGGAUUGAGCAUCA
B15: ENSG00000152377:stop:overlap|stop_codon|ENSG00000152377|stop_codon|NA|stop_codon (ssRNA)
RNA: GGGAGUUCUACAGUCCGACGAUCUGACAGAGGAUGAUGAGGAUGAGGAUGAUGACAAAGAGGAUGAGGUCGGGUACAUAUGGUAGUGCCCACAAGAAAGAGGACACAAGUUUUGCACAAAAUUGCAAGUCACUUCCUAUUCCUCAACAGAGGAUUGAGCAUCA
B16: chr4:177362735:177362840:+|3pUTR|ENSG00000109674|unk|total|mutant (ssRNA)
RNA: GGGAGUUCUACAGUCCGACGAUCAAAGUGUUUUCCGUAUGCUUUCCGUCUCUUGUAACUGGGGAGAAGCAGUGUUUUUUUUUCCGGAAAGGAUUAUGCGACACAAUAAAAUAAGAUAUUCUGUCUGCCGUGAAUACAUUUCUCCAACAGAGGAUUGAGCAUCA
B17: chr8:116854276:116854437:-|CDS|ENSG00000164754|unk|FALSE|bound_elsewhere (ssRNA)
RNA: GGGAGUUCUACAGUCCGACGAUCAGGAAGCUAAUUGUUGACAGUGUCAAAGAGUUGGAUAGCAAGACAAUUAGAGCCCAACUUAGUGAUUAUUCAGAUAUUGUUACUACUUUGGAUCUGGCACCGCCCACCAAGAAAUUGAUGCAACAGAGGAUUGAGCAUCA
B18: chr6:52500910:52501011:-|3pUTR|ENSG00000065308|msi1|FALSE|unique (ssRNA)
RNA: GGGAGUUCUACAGUCCGACGAUCUAAUAACUGCAAAUCGCAUGUUCAGCCAGCAGCCUCCUAAGCCCACCUUCCUCCCCCAUUAGAGAACACCCAUCCUAGGUGCUCUCCAGGCUGUGUCAUUGGCAGGGCUUCACAUGCAGGCAACAGAGGAUUGAGCAUCA
B19: chr21:43758806:43758907:+|3pUTR|ENSG00000160209|msi1|total|mutant (ssRNA)
RNA: GGGAGUUCUACAGUCCGACGAUCACUUUCUUAAUCCAGUUUUUCAAACUUCUCCCUGCCGACCGUAAGGAUGAAUUCCACAACCGGAUCCUUUUUAAAAUCGAUUUUAAAUUGUUGCCCCGUCCUGCCAAGGUUAUUAUGUGCCAACAGAGGAUUGAGCAUCA
B20: chr1:54043363:54043464:-|CDS|ENSG00000116209|msi1|FALSE|unique (ssRNA)
RNA: GGGAGUUCUACAGUCCGACGAUCCGCACAGAGCUUCAUAACCUCUUCAUGGACUUUUUAUCUUCAAGCCGAUGACGGAAAAAUAGUUAUAUUCCAGGUGACAACUGAGCUUCAUGGAUUCAUCUAAAUACUAACAACAGUAAACAACAGAGGAUUGAGCAUCA
B21: ENSG00000198589:be:win_601|CDS|ENSG00000198589|bound_else_gene|NA|bound_elsewhere_windowed (ssRNA)
RNA: GGGAGUUCUACAGUCCGACGAUCUAUGGUCCUGAUGCCUUUUUUAACUUUCCAGGAAAGAGUGCUGCAGCUAUUGCAUUACCUCCUAUAGCCAAAUGGCCAUACCAGAAUGGUUUUACAUUUCAUACAUGGCUUAGAAUGGAUCAACAGAGGAUUGAGCAUCA
B22: chr12:24812577:24812678:-|3pUTR|ENSG00000060982|msi1|total|mutant (ssRNA)
RNA: GGGAGUUCUACAGUCCGACGAUCAUCCAAAGGAGCUUUUUCCUUAUUCUGUCAAGCAUUGAGAUCUUCUUCAGCUUUCAAUGCCGUUGCUAAAUACAAAUAAUGCUACCCGGCCGUGACUAAAUACCGCAAACACUUCAUCAGCAACAGAGGAUUGAGCAUCA

Target: T1, UNK ZnF1-6 (called full-length)
Test: nsRBNS (natural sequence RNA bind-n-seq); RBNS binding buffer (assumed for nsRBNS): 25 mM Tris pH 7.5, 150 mM KCl, 3 mM MgCl2, 0.01% Triton X-100, 500 ug/ml BSA, 20 U/ml SUPERase-In, 4 C; UNK is unkempt and MSI1 is Musashi-1; names of the RNAs are library labels; protein concentration not given here; high values mean tight binding

| Binder | binding signal [enrichment R] |
| --- | --- |
| B1 | 0.546 |
| B2 | 1.13 |
| B3 | 0.567 |
| B4 | 0.653 |
| B5 | 0.424 |
| B6 | 0.549 |
| B7 | 0.926 |
| B8 | 0.406 |
| B9 | 0.247 |
| B10 | 0.944 |
| B11 | 0.695 |
| B12 | 0.402 |
| B13 | 0.246 |
| B14 | 0.652 |
| B15 | 0.673 |
| B16 | 0.427 |
| B17 | 0.624 |
| B18 | 0.849 |
| B19 | 0.447 |
| B20 | 0.525 |
| B21 | 0.375 |
| B22 | 0.21 |
